# Laboratory results published in the supplement of paper PMC11417369.
# ± gives the standard deviation of the averaged measurements. This is one part of the list.
# Tested on: PfAP2-I AP2 domain 3 (GST-tagged)
# Experiment: gcPBM binding intensity (ln(normalized median fluorescence intensity)); higher = stronger DNA binding
# How it was run: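 GST-tagged P. falciparum DNA-binding domains, expressed in E. coli (about 25 μg on average), were applied for 1 h to an Agilent 4 × 180k array of primer-extended double-stranded 36-bp intergenic genomic probes plus negative controls. The binding buffer was 1× PBS with 1% milk, 0.2 mg/ml BSA, 0.5% salmon testes DNA and 0.03% Triton X-100. Bound protein was detected with Alexa488 anti-GST antibody and scanned at 488 nm. Binding intensity is the highest Masliner-normalised natural-log median intensity across replicate spots of either probe orientation.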
row,Sequence,gcPBM binding intensity (ln)
1,AAAATAATAAAAAAAAAAAAAAAAAAAAAAAAGTAT [TGCATGCA_negctrl_site193],7.63 ± 0.65
2,AAAAAAATAATAAAATGTACAAATAAACACATAAAG [XGTACX_site5102],8.04 ± 0.53
3,AAATAAAATAAAACAACACACACGAATGTATAAATA [CACACA_site885],7.71 ± 0.64
4,TACAACAAGTAATGGTGTACATTATATTATGTAATA [XGTACX_site1194],7.73 ± 0.47
5,TATAACAATTTTTATGCATGCGACTATAATATTTTT [TGCATGCA_site508],7.63 ± 0.66
6,TACATATTGAATAAGACACACATATATATATATATA [CACACA_site1878],9.32 ± 0.38
7,TAAGGATTGGTATAAAGTACAGGAGTAAATTGAAAA [XGTACX_site8525],7.95 ± 0.55
8,CATACACATATATATTGTACACATATATGTATGTAT [XGTACX_site4030],7.64 ± 0.34
9,ATATTTTTTTTTTATTGTACCCTCATAAAAGAAAAG [XGTACX_site773],8.03 ± 0.42
10,TATATACACGCACATACACACAAATAAAAAAACACC [CACACA_site7578],9.055 ± 0.035
11,TGTGTTGTAATTAAAACACACATGAAAAAATTAAAA [CACACA_site51],7.82 ± 0.64
12,GTATTATTCTATAGAAGTACAGTATATTATTATTTA [XGTACX_site5073],8.05 ± 0.18
13,TTTTTTATTCCATAATATAATATGTTTTGAAATTTG [GTGCAC_negctrl_site440],7.53 ± 0.61
14,ATATACATATCAATGTAATATTATATACTTTTTTAG [CACACA_negctrl_site816],7.43 ± 0.51
15,AAAAAAATAAATAAATGTACATATATAAAACATTGT [XGTACX_site2136],7.84 ± 0.33
16,ATATAATTATATTCCATACACACATATATTTAAAGG [CACACA_site2958],7.8 ± 0.47
17,AAACGAGAACATAATAAATACATAAATAAATAAATA [GTGCAC_negctrl_site433],8.02 ± 0.76
18,ATTAATAATATTACATGTACATAATATAATTGAAAA [XGTACX_site5084],7.79 ± 0.19
19,TTTATTTTATTCACTATCATAAGCAAAACTTAAACA [GTGCAC_negctrl_site287],7.6 ± 0.4
20,ATTTTTTTTTTTTTTTTTTTTTTTTTTTTTGTTGTT [CACACA_negctrl_site1313],7.67 ± 0.32
21,TAGTTAATATGATTATGTACATATATATATTAATTT [XGTACX_site1750],7.55 ± 0.3
22,TTAGATATTATTATATGTACATATTATATGTATTAT [XGTACX_site3836],7.74 ± 0.41

row,Sequence,gcPBM binding intensity (ln)
1,ATAATATATTTATAAACACACAAAAAAAGTTATATA [CACACA_site6831],7.55 ± 0.55
2,TGTATATGAAAAAATAGTACTCATATAAATATCTTT [XGTACX_site6542],7.63 ± 0.64
3,TTAATCCACAGACACACACACACAAAATAAAATACA [CACACA_site244],8.06 ± 0.16
4,TTATTTATGAAGTATACACACAATATATATATATAT [CACACA_site1248],9.01 ± 0.45
5,TAGTTCTTTTAATTTAGTATTATACAATATTGGAAA [CACACA_negctrl_site521],7.49 ± 0.47
6,AATATATTAAATATTACACACATACATTTAGTGTAA [CACACA_site5145],7.72 ± 0.4
7,TATATATTAAACTTTGCACACATAATTTAACTACAA [CACACA_site3440],8.86 ± 0.26
8,AATATGTGTATAGATAGTACACATGCTGATAATATA [XGTACX_site5941],7.82 ± 0.59
9,AAAATTTTGGAACGTGCACACATATGTAATATATAT [CACACA_site9004],10.2 ± 0.48
10,TTTTTAAAATATTTAACACACAATTATAATGCATAA [CACACA_site3932],8.885 ± 0.035
11,AGTAGTCTGGAGAAATGTACACAGTATCTGGTAGCT [XGTACX_site4871],7.64 ± 0.64
12,AATAATAAATAAATGTGTACTTAAAAATATTATATT [XGTACX_site3005],7.76 ± 0.41
13,CAAAGTATTATGATTACACACATGTGCTTTTTTCTT [CACACA_site163],7.82 ± 0.57
14,TTGTATCATATATTATGTACATATTGATTTATTACC [XGTACX_site12],7.88 ± 0.26
15,ATGTCCTATATTAGTACACACATGAAAATATAAATA [CACACA_site7497],8.26 ± 0.29
16,AACCATACACAAATAAACATAGACACAGATACCTCC [CACACA_negctrl_site598],7.75 ± 0.61
17,AATATAAAAAAAAACAAAAAAAAAATTTTGGTTCAC [CACACA_negctrl_site1290],7.38 ± 0.7
18,TTATTGTTATTTGTTTGTACATAATATAATATATTA [XGTACX_site6477],7.71 ± 0.33
19,TCCTATGATGATGATAGTACATATGAGTTCAAAAAA [XGTACX_site273],7.93 ± 0.49
20,ACAATTAATCAAACAAGTACAAAATATATCCCTATT [XGTACX_site6223],7.87 ± 0.47
21,TATATTTATTTATATACACACATAATAAAAAATATA [CACACA_site6527],7.75 ± 0.32
22,TACTTATTGTGATACTTATATTATTTTATGATTAAA [XGTACX_negctrl_site353],7.57 ± 0.35
